# Assay results reported in paper PMC6919601, “Identification of Plasmodium dipeptidyl aminopeptidase allosteric inhibitors by high throughput screening” (PLoS ONE, 2019).
# About 230 (0.21%) of roughly 110,000 compounds showed an effect of 50% or more. This is one part of the list.
# Biological target: DPAP1 (Plasmodium falciparum, UniProt Q8IIJ9)
# Experiment: primary screen, percent inhibition; read by cleavage of a fluorogenic dipeptide substrate; higher = more effect of the substance
# Design: species or system P. falciparum D10 trophozoite lysates; single well
# 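Also: 30 min substrate incubation versus DMSO and 10 µM JCP410 controls.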
# Chain of DPAP1 (Q8IIJ9 whole entry, looked up): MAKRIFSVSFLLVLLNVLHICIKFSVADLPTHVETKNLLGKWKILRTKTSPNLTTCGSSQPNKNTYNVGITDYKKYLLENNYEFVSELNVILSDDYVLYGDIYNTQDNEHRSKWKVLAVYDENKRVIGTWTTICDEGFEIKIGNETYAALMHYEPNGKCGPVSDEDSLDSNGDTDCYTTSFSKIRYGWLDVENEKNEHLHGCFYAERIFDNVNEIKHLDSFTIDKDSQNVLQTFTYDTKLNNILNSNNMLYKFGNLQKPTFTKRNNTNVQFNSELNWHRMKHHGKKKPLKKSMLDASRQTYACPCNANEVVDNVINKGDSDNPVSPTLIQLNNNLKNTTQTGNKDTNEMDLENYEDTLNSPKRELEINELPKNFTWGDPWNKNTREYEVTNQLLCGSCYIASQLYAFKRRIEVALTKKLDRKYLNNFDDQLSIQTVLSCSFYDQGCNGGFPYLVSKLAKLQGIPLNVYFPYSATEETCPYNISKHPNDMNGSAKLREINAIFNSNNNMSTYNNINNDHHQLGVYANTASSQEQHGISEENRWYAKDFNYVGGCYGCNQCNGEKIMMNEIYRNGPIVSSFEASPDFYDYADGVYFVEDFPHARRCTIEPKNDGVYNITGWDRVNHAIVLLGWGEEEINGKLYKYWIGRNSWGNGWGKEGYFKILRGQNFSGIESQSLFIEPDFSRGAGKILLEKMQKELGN
row,Structure (SMILES),% Inhibition @ 10 uM
1,COc1ccc(NC(=O)CS(=O)(=O)Cc2ccccc2)cc1,-1.28%
2,CCOc1ccccc1/C=C1/N=C(c2ccccc2C)OC1=O,-2.6%
3,CCn1c(C(=O)NCc2ccccn2)cc2sccc21,-10.5%
4,Nc1ncnc2c1ncn2CCNCc1ccccc1,-3.33%
5,CC1CCN(C2=C(NC3CCCC3)C(=O)c3ccccc3C2=O)CC1,3.35%
6,O=C(NC1CCSC1=O)c1ccc(C(=O)NC2CCSC2=O)cc1 (stereo not shown),3.33%
7,O=C(c1ccc(C2SCC(=O)N2CCc2ccccc2)cc1)N1CCOCC1 (stereo not shown),1.84%
8,COc1ccc(Br)cc1/C=C1\N=C(c2cncc(Br)c2)OC1=O,-5.99%
9,CCOC(=O)N1CCC(N2CCC(C(N)=O)CC2)CC1,-1.5%
10,OCCn1c(SC2CCCCC2)nc2ccccc21,-18.6%
11,COc1ccc(-n2nnnc2C2CCN(S(=O)(=O)c3ccc(Cl)s3)CC2)cc1,1.67%
12,CCOc1ccccc1C(=O)Nc1ccc(S(N)(=O)=O)cc1,-4.59%
13,N#CC1=C(N)NC(SCC(=O)c2ccc(Cl)cc2)=C(C#N)C12CCCC2,11.1%
14,Cc1ccccc1/N=C/c1c(C)nn(-c2ccc(F)cc2)c1O,-2.16%
15,N=C(NOC(=O)CCc1ccccc1)c1ccccc1Cl,0.343%
16,COc1ccc(OC)c(CN2CCN(Cc3cccc(F)c3)CC2)c1,-9.94%
17,O=C(CSc1nnc(-c2ccccc2)n1Cc1ccccc1)NCCc1ccccc1,-10%
18,Cc1ccc(CCN2CC(C(=O)NCCCN(C)Cc3ccccc3)CC2=O)cc1 (stereo not shown),-5.43%
19,CN1N=C2C3CCN(CC3)C2C1c1ccc2c(c1)OCO2 (stereo not shown),0.51%
20,COCCNC(=O)c1c(C)c(-c2cccc(Cl)c2)nc2ccccc12,6.79%
21,CC(NC(=O)Cn1ncc2c3ccccc3n(C)c2c1=O)c1ccc2c(c1)OCCO2 (stereo not shown),4.95%
22,CCOc1c(/C=C2/S/C(=N\c3ccccc3)N(C)C2=O)cccc1OC,1.57%
23,Cc1cc(C2(c3ccc(O)c(C)c3)C(=O)N(Cc3ccccc3)c3ccccc32)ccc1O,-6.68%
24,CCc1c(C)nc(SCC(=O)N2CCc3cc(OC)c(OC)cc3C2)c(C#N)c1C,19.6%
25,O=P(O)(CN1CCCCC1)C1CCCCC1O (stereo not shown),-3.38%
26,CC1(C)CC(=O)C2=C(C1)c1c(ccc3ccccc13)NC2c1ccc(O)c(O)c1 (stereo not shown),2.55%

row,Structure (SMILES),% Inhibition @ 10 uM
1,Clc1ccc(CNC2CN3CCC2CC3)cc1 (stereo not shown),1.72%
2,O=C(c1cnn2c(C(F)F)cc(-c3ccccc3)nc12)N1CCN(c2ccccn2)CC1,5.65%
3,O=C(NCCc1ccccc1)NCc1cccn1Cc1ccccc1,-6.97%
4,CCNC(=O)CN(c1ccc(C23C[C@H]4C[C@@H](C2)C[C@@H](C3)C4)cc1)S(C)(=O)=O,1.19%
5,Cc1ccc(S(=O)(=O)N(C)c2ccccc2C(=O)N2CCCC2)cc1,7.62%
6,Cc1ccc(OCC(=O)NCC2CCCO2)c(C)c1 (stereo not shown),3.46%
7,CCOc1cc(S(=O)(=O)N2CCOCC2)c(C)cc1C,0.245%
8,Cc1nn(Cc2nnc(S)n2Cc2ccccc2)c(C)c1Cl,-1.1%
9,CCC1C(c2ccccc2)=NNc2nc3c(c(=O)n(C)c(=O)n3C)n21 (stereo not shown),-2.5%
10,CCCSc1nc(=O)c2c(n1C)NC(=O)CC2c1cc(F)ccc1F (stereo not shown),0.596%
11,CCS(=O)(=O)N1CCC(C(=O)NCCCN2CCN(Cc3ccccc3)CC2)CC1,-1.21%
12,COc1ccc2oc3cc(N(C)C)cc(-c4ccc(Cl)cc4)c3c2c1,1.13%
13,CN(CCc1ccccn1)Cc1ccc(Cl)cc1,1.83%
14,O=C(NCCCCc1ccccc1)c1ccccc1Cl,-3.03%
15,CC1C(=O)CC(c2ccccc2)NC1c1ccccc1 (stereo not shown),4.8%
16,Cc1ccc(C2=CC(c3cccc(Br)c3)n3nnnc3N2)cc1C (stereo not shown),3.26%
17,Cc1coc2cc3oc(=O)c(-c4ccccc4)cc3cc12,-2.57%
18,CCN(CC)c1ccc(NC(=O)C2CC2)cc1,9.11%
19,Cc1ccnc(NS(=O)(=O)c2ccc(NC(=O)COc3ccc(Cl)cc3)cc2)n1,-0.132%
20,CC1=CC(C)(C)NC(=S)N1c1cccc(O)c1,3%
21,COc1ccc(CNC2CN3CCC2CC3)cc1OC (stereo not shown),5.03%
22,COc1ccc(-n2nnc(-c3nc(-c4ccncc4)no3)c2N)cc1,2.19%
23,Cc1ccc(CNS(=O)(=O)c2ccc(CN3C(=O)c4cccnc4C3=O)cc2)o1,-4.45%
24,CCOC(=O)c1sc(NC(=O)c2cc(-c3cccc(Cl)c3)on2)c(C(=O)OCC)c1C,-3.12%
25,Cc1ccc2oc3c(c(=O)c2c1)C(c1cccc(O)c1)N(Cc1ccc2c(c1)OCO2)C3=O (stereo not shown),-6.94%
26,COc1cc(NC(=O)/C(=C/c2ccc(C)o2)NC(=O)c2ccccc2)cc(OC)c1,0.777%
